Laboratory results taken from patent publication US20160168541A1, “TRANSDUCIBLE MATERIALS FOR CELL REPROGRAMMING” (VIVOSCRIPT, INC., priority 2013, published 2016).

Experiments:
Format in all cases: cell-based
adult human fibroblasts [1] = assay: Reprogramming of fibroblasts to skeletal muscle progenitor cells (satellite cells, myoblasts)
Method: FIG. 4. Schematic of experimental protocol to convert fibroblasts to myoblasts with transducible materials derived from MyoD.
In this example, three versions of transducible materials derived from MyoD (the master myogenic transcription factor) were generated and their effects on reprogramming fibroblast cells into skeletal muscle progenitor cells (SMPCs) were compared.
Most myogenic analysis was performed at >2 weeks after polypeptide transduction to avoid confounding issues from added exogenous polypeptides.

adult human fibroblasts [2] = assay: Live fluorescent imaging of uptake and nuclear occupancy of sGFP polypeptides in fibroblasts
Method: FIG. 5. Live fluorescent imaging of human fibroblasts after culturing in 10 μg/ml of first generation sGFP-MyoD-11R.
In the first generation of transducible materials, a sGFP transduction domain and a poly-arginine (11R) were fused to the N-terminus and C-terminus of MyoD through a linker (SEQ ID NO: 99) respectively to generate sGFP-MyoD-11R (SEQ ID NO: 156). […] The nuclear entry of sGFP-MyoD-11R was increased by using 100 μg/ml sGFP-MyoD-11R and electroporation, which successful reprogrammed very low percentage (around 10%) of FBs to MyoD+ myoblasts.
The second generation of transducible materials, a strong classic nuclear localization sequence (cNLS), the SV40 T antigen NLS, was added in-between sGFP and MyoD-11R (SEQ ID NO: 157 and FIG. 3).
Leptomycin B (leptoB), a nuclear export blocker, was added at 5 nM to adult fibroblasts to enhance nuclear occupancy of sGFP-NLS-MyoD-11R. […] Higher concentrations of leptoB might have off-target effects, which limits its use in enhancing nuclear retention of specific polypeptides.
In the third generation of transducible materials, the NES of MyoD was mutated to generate sGFP-NLS-MyoD(mNES)-11R (SEQ ID NO: 127 and FIG. 3) to further improve their nuclear occupancy and transcription efficiency. […] These SCs were positive for Myf5 (>90% of SCs) at 22 days after transduction (FIG. 8B). Also, these SCs could be induced to differentiate to myoblasts with downregulation of Pax7 and upregulation of MyoD via a published myogenic protocol (Cosgrove et al, Rejuvenation of the muscle stem cell population restores strength to injured aged muscles, Nat Med., 20:255-64 (2014)). […] Thus, by using sGFP-NLS-MyoD(mNES)-11R, efficient fibroblasts conversion to SMPCs can be achieved in a controlled fashion. The risk of extensive durations of MyoD activation is completely avoided. Most myogenic analysis was performed at >2 weeks after polypeptide transduction to avoid confounding issues from added exogenous polypeptides. In summary, adult fibroblast can be successfully reprogrammed to SCs using sGFP-NLS-MyoD(mNES)-11R with defined kinetics (2-day nuclear occupancy and 2-3 week peptide lifespan).

[3] = tested on: Oct4 target genes (Oct4, Sox2, Nanog, Smad3 and Smad4); assay: RT-qPCR of Oct4 target genes in HepG2 cells treated with transducible materials; conditions: serum-free medium, 6 hours, normalized by GAPDH, sGFP-treated sample set as 1.00
Method: FIG. 2. Comparison of sGFP-Oct4(mNES) and sGFP-Oct4 protein in regulating the expression of downstream genes. HepG2 cells were treated with sGFP, sGFP-Oct4 or sGFP-Oct4(mNES) in serum-free medium for 6 hours. RNA was isolated and RT-qPCR was performed. The expression of each gene was normalized by the expression level of GAPDH. The relative expression level of each gene in the control condition (sGFP-treated sample) was set as 1.00.
HepG2 cells were treated with transducible materials comprising isolated polypeptide of sGFP, sGFP-Oct4-11R or sGFP-Oct4(mNES)-11R in serum-free medium for 6 hours. RNA was extracted from each sample using RNeasy Micro Kit from Qiagen and cDNA was synthesized through reverse transcription reaction. RT-qPCRs of five Oct4 target genes (Oct4, Sox2, Nanog, Smad3 and Smad4 were performed using a pair of primers specific to each target gene and a hydrolysis probe from Roche Universal ProbeLibrary on LightCycler 480 II. The expression of each gene was normalized by the expression level of GAPDH. The relative expression level of each gene in the control condition (sGFP-treated sample) was set as 1.00.

Molecule | conversion of human fibroblasts to satellite cells (marker staining) (adult human fibroblasts [1]; 18-22 D after exposure to polypeptide and leptomycin B) | SCs positive for Myf5 (adult human fibroblasts [1]; at 22 days after transduction) | adult fibroblasts converted to Pax7+/MyoD− satellite cells (adult human fibroblasts [1]; third generation, leptomycin B) [%] | time the polypeptide stays in the nucleus (adult human fibroblasts [2]; 10 μg/ml, leptomycin B 5 nM) [h] | nuclear occupancy (GFP signal in nuclei) with leptomycin B (adult human fibroblasts [2]; 10 μg/ml, leptomycin B 5 nM, third generation at 30 min, 24 hours and 48 hours) | nuclear occupancy (summary of kinetics) (adult human fibroblasts [2]; adult fibroblasts) [days] | GFP signal of the polypeptide late after application (adult human fibroblasts [2]; after 22 days after the polypeptide application) | time in culture until fully degraded (peptide lifespan) (adult human fibroblasts [2]; fluorescent imaging of the sGFP) | time after transduction at which polypeptides were almost completely exported from nuclei to cytoplasm (adult human fibroblasts [2]; regardless of the existence of leptomycin B) [h] | expression of Oct4 target genes [3]
sGFP-NLS-MyoD(mNES)-11R: Third generation: second generation with the NES of MyoD mutated, SEQ ID NO: 127 (protein) MASKGERLFRGKVPILVELKGDVNGHKFSVRGKGKGDATRGKLTLKFICTTGKLPVPWPTLVTTLTYGVQCFSRYPKHMKRHDFFKSAMPKGYVQERTISFKKDGKYKTRAEVKFEGRTLVNRIKLKGRDFKEKGNILGHKLRYNFNSHKVYITADKRKNGIKAKFKIRHNVKDGSVQLADHYQQNTPIGRGPVLLPRNHYLSTRSKLSKDPKEKRDHMVLLEFVTAAGIKHGRDERYKGGSGGSGGSGGSHMAQPLCPPLSESWMLSAAWGPTRRPPPSDKDCGRSLVSSPDSWGSTPADSPVASPARPGTLRDPRAPSVGRRGARSSRLGSGQRQSASEREKLRMRTLARALHELRRFLPPSVAPAGQSLTKAETARLAIRYAGHASAVLGLSEESLQRRCRQRGDAGSPRGCPLCPDDCPAQMQTRTQAEGQGQGRGLGLVSAVRAGASWGSPPACPGARAAPEPRDPPALFAEAACPEGQAMEPSPPSPLLPGDVLALLETWMPLSPLEWLPEEPKESGGGGSPGRRRRRRRRRRR | converted to Pax7+/Myf5+ SCs | > 90 % of SCs | > 90 | 48 to 72 | Strong GFP signal was observed in nuclei | 2 | No GFP signal | 2-3 weeks | > 72 | –
sGFP-Oct4(mNES)-11R: Fusion polypeptide of supercharged GFP, Oct4 with mutated NES and 11R, SEQ ID NO: 141 (protein) MASKGERLFRGKVPILVELKGDVNGHKFSVRGKGKGDATRGKLTLKFICTTGKLPVPWPTLVTTLTYGVQCFSRYPKHMKRHDFFKSAMPKGYVQERTISFKKDGKYKTRAEVKFEGRTLVNRIKLKGRDFKEKGNILGHKLRYNFNSHKVYITADKRKNGIKAKFKIRHNVKDGSVQLADHYQQNTPIGRGPVLLPRNHYLSTRSKLSKDPKEKRDHMVLLEFVTAAGIKHGRDERYKGGSGGSGGSGGSHMFYSGLLTEGGRKETDMREAASLRQQRRMKQAVQFIHKDSADLLPLDGLKKLGSSKDMQPHNILQRRLMETNLSKLRSGPRVPWASKTNKLNQAKSEGLKKSEEDDMILVSCQCAGKDVKALVDTGCLYNLISLACVDRLGLKEHVKSHKHEGEKLSLPRHLKVVGQIEHAVITAGSLRLDCPAAVVDDNEKNASAGLQTLRSLKCIINLDKHRLIMGKTDKEEIPFVETVSLNEDNTSEAESGGGGSPGRRRRRRRRRRR | – | – | – | – | – | – | – | – | – | significantly increase
